Assay results published in PubChem BioAssay AID504332 (National Center for Advancing Translational Sciences (NCATS), 2011).
Out of some 350,000 compounds screened, about 31,000 (8.9%) were called active. The inconclusive results got no clear call from the source; some entries with a clear call stand among them for comparison. The call rests on the fitted dose curve; in most records, active means well fitted inhibition curve with a large enough effect; inconclusive means small, poorly fitted or top-dose-only effect; inactive means no such curve, though single readings can be large or run the other way. Where the call is inconclusive, the potency comes from a doubtful curve fit.
Further: nearly all actives have a fitted effect of over 75% in size.
On the % scale 0 is the no-effect control and ±100 the full control effect; potency means the concentration at half of the fitted maximal effect; tags describe the fitted curve by direction and shape.

The molecules below were run against Histone-lysine N-methyltransferase EHMT2 (Homo sapiens) (UniProt Q96KQ7) (assay: qHTS Assay for Inhibitors of Histone Lysine Methyltransferase G9a). Settings: G9a H3K9 monomethylation, AlphaScreen, 2 h; activity, negative = inhibition: at 59 µM (top of the series) unless noted.
Chain of UniProt Q96KQ7 (Q96KQ7 whole entry, looked up): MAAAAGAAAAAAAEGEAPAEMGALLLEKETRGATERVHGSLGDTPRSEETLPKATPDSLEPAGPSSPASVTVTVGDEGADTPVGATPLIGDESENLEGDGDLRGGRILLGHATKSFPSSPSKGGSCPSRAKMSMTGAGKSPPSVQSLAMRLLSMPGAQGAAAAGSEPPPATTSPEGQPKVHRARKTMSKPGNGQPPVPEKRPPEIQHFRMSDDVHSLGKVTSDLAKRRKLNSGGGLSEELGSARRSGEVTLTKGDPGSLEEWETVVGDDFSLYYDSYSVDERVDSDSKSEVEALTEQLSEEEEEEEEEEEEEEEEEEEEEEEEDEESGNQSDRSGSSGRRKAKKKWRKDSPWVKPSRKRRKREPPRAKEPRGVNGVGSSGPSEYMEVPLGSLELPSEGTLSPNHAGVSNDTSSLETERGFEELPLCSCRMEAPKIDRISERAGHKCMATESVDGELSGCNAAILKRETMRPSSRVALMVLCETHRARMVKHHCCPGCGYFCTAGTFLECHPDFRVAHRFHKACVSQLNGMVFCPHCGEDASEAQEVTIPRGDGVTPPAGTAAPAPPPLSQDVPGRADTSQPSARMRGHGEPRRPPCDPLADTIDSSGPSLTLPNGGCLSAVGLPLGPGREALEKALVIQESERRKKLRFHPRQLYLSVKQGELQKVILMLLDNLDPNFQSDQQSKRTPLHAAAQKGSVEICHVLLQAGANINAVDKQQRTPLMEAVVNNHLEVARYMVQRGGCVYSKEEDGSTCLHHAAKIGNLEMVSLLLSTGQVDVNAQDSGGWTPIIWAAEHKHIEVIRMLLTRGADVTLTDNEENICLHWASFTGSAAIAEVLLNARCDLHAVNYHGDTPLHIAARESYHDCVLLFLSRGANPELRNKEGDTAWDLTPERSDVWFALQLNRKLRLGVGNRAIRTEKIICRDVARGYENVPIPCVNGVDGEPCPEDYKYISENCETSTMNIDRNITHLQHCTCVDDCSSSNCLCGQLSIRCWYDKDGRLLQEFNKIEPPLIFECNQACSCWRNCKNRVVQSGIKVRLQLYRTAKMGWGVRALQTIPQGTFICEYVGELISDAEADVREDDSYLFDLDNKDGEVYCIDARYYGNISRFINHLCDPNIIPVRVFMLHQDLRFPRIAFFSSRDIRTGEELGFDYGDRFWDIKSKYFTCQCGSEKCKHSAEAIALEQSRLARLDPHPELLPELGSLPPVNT
Method in brief: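 Using a bead-based AlphaScreen, monomethylated H3K9 product from 2 h room-temperature reactions (G9a 20 nM, peptide 500 nM, SAM 20 uM) was detected with 0.5 ug/mL rabbit anti-H3K9me1 antibody.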
With `COc1ccc(-c2cc(C(F)(F)F)nc(SCC(=O)N(C)Cc3ccccc3)n2)cc1` the Potency was “inactive”. In the case of `CC(C)c1ccc2[nH]c3nc(SCC(=O)N4CCOCC4)nnc3c2c1`, the Potency is reported as “inactive”. `CC1CC(C)CN(CCCNS(=O)(=O)c2ccc3c(c2)oc(=O)n3C)C1` (stereo not given) was tested, and the Potency was “inactive”. `NS(=O)(=O)c1ccc(CNC(=S)NC2CCCCC2)cc1` was tested, and the Potency was inconclusive: 89.1 µM [inhibitor, single point]. With `CCOc1ccc(NC(=O)CC(NCc2ccccn2)C(=O)O)cc1` (stereo not given) the Potency was inconclusive: 50.1 µM [inhibitor, partial curve, poor fit]. `COc1ccc(C(CNC(=O)c2ccccc2SC)N(C)C)cc1` (stereo not given) was tested, and the Potency was active: 7.94 µM. For `COC(=O)c1cc(C)sc1NC(=O)CC1Nc2ccccc2NC1=O` (stereo not given), the Potency was active: 50.1 µM. With `CO[C@H]1/C=C/O[C@@]2(C)Oc3c(C)c(O)c4c(O)c(c(/C=N/N5CCN(C)CC5)c(O)c4c3C2=O)NC(=O)/C(C)=C\C=C\[C@H](C)[C@H](O)[C@@H](C)[C@@H](O)[C@@H](C)[C@H](OC(C)=O)[C@@H]1C` the Potency was active: 20 µM. In the case of `CN(Cc1ccco1)C(=O)Cn1nc(-c2ccc(Cl)cc2)ccc1=O`, the Potency is reported as inconclusive: 89.1 µM [inhibitor, single point]. With `CCSc1nc2sc3c(c2c(=O)n1-c1ccc(C)c(Cl)c1)CCN(C(C)=O)C3` the Potency was inconclusive: 12.6 µM [inhibitor, partial curve, poor fit]. With `COc1cc(NC(=O)c2ccccc2Cl)c2ncccc2c1` the Potency was “inactive”. For `O=C(O)c1ccc(/C=C2\SC(=Nc3ccccc3)N(c3ccccc3)C2=O)cc1`, the Potency was inconclusive: 79.4 µM [inhibitor, single point]. `COc1ccc(N/N=C(C)/C(=N/O)C(=O)Nc2ccccc2)cc1` was tested, and the Potency was active: 22.4 µM. `Cc1ccc(NC(=O)Cc2nnc(SCC(=O)c3ccc(Br)cc3)n2C)cc1Cl` was tested, and the Potency was inconclusive: 89.1 µM [inhibitor, single point]. `N#Cc1c(-c2ccccc2)nc(SCc2nc(N)nc(N3CCCCC3)n2)[nH]c1=O` was tested, and the activity, negative = inhibition was inactive: 2.3% [at 12.7 µM]. With `C=C(C)Cn1c(SCC(=O)O)nnc1-c1ccc(OC)cc1` the Potency was inconclusive: 31.6 µM [inhibitor, single point]. For `S=c1nc(-c2cc(Cl)cc(Cl)c2)[nH][nH]1`, the Potency was active: 22.4 µM. `CCCCCc1ccc(C2=NNC(=O)CC2)cc1` was tested, and the Potency was inconclusive: 100 µM [inhibitor, partial curve, poor fit]. `Cc1ccc(NC(=O)CSc2nccn2-c2ccccc2)cc1` was tested, and the Potency was inconclusive: 11.2 µM [inhibitor, partial curve, poor fit]. `O=[N+]([O-])c1ccc(Sc2cc[n+]([O-])c3ccccc23)c([N+](=O)[O-])c1` was tested, and the Potency was inconclusive: 56.2 µM [inhibitor, partial curve, poor fit]. With `CC(C)c1ccc(/C=C2\C(=O)N(CCN3CCOCC3)C(=S)N2C)cc1` the Potency was inconclusive: 35.5 µM [inhibitor, partial curve, poor fit]. For `Cc1ccnn1CC(=O)N/N=C/c1cn[nH]c1-c1ccccc1`, the Potency was inconclusive: 20 µM [inhibitor, full curve]. For `CCCOc1ccc(C(=O)C(CCC(CNCC)C(=O)c2ccc(OCCC)cc2)CNCC)cc1` (stereo not given), the Potency was inconclusive: 31.6 µM [inhibitor, single point]. With `O=C(Oc1cccc(NC(=O)c2ccco2)c1)c1cccc(S(=O)(=O)N2CCCCC2)c1` the Potency was inconclusive: 70.8 µM [inhibitor, single point]. For `CC(CNCC1CCCO1)COc1ccccc1` (stereo not given), the Potency was inconclusive: 2.82 µM [inhibitor, partial curve, poor fit]. `CCc1nccn1S(=O)(=O)c1cc(Br)ccc1Br` was tested, and the Potency was “inactive”. `Cc1ccc(NC(=O)c2cn(CCC#N)nc2-c2cccs2)c([N+](=O)[O-])c1` was tested, and the Potency was inconclusive: 39.8 µM [inhibitor, single point]. For `COc1ccc(C)cc1NC(=O)CN(C)S(=O)(=O)c1ccc2[nH]c(=O)oc2c1`, the Potency was “inactive”. With `COc1ccc(CN(CCN(C)C)Cc2ccccc2)c(OC)c1` the Potency was active: 8.91 µM. For `Cc1sc2ncnc(SCC(=O)NC(C)(C)C)c2c1C`, the Potency was “inactive”. With `COCCCN(C(=S)Nc1c(C)cc(C)cc1C)C(C)c1ccncc1` (stereo not given) the Potency was inconclusive: 17.8 µM [inhibitor, single point]. `O=[N+]([O-])c1cc(-c2nc3nc4ccccc4nc3n2CCc2ccccc2)cc([N+](=O)[O-])c1` was tested, and the Potency was inconclusive: 56.2 µM [inhibitor, partial curve, poor fit]. For `CCCCN(C(=O)/C=C/c1ccco1)c1c(N)n(Cc2ccccc2)c(=O)[nH]c1=O`, the Potency was “inactive”. With `Cc1cnccc1CNC(=O)CC1C(=O)NCCN1CC(C)(C)C` (stereo not given) the Potency was inconclusive: 79.4 µM [inhibitor, single point]. In the case of `Cc1c(S(=O)(=O)N2CCN(c3cccc(C(F)(F)F)c3)CC2)c(=O)n(C)c(=O)n1C`, the Potency is reported as inconclusive: 31.6 µM [inhibitor, partial curve, poor fit]. For `COc1ccc(-c2csc(NC(=O)CS(=O)(=O)c3ccccc3)n2)cc1`, the Potency was active: 44.7 µM. In the case of `O=C(Nc1cccc(C(F)(F)F)c1)C1CCCN(S(=O)(=O)c2cccc3nonc23)C1` (stereo not given), the Potency is reported as “inactive”. For `Cc1ccc(C(C)C)cc1OCCCCN1CCCC1`, the Potency was active: 10 µM. `N/C(=N\OS(=O)(=O)c1cc(Cl)ccc1Cl)c1ccncc1` was tested, and the Potency was inconclusive: 89.1 µM [inhibitor, single point]. With `Cc1nn(-c2ccccc2)c(C)c1C=O` the Potency was “inactive”. `Cc1oc2ncn(CC(C)C)c(=O)c2c1C(=O)NCCCN(C)Cc1ccccc1` was tested, and the Potency was “inactive”. `O=C(COc1ccccc1)Nc1nc(-c2cccnc2)cs1` was tested, and the Potency was inconclusive: 12.6 µM [inhibitor, single point]. In the case of `COc1ccc(C2=CC(=O)C[C@H](c3ccc(OC)c(OC)c3)C2)cn1`, the activity, negative = inhibition is reported as inactive: 9.1% [at 0.501 µM]. With `CCn1c(C)c(C)c2cc(C(=O)NCCc3cc(OC)ccc3OC)ccc21` the Potency was inconclusive: 28.2 µM [inhibitor, single point]. In the case of `Cc1ccc(S(=O)(=O)N2CCN(c3ccc([N+](=O)[O-])c(NCCN4CCOCC4)c3)CC2)cc1`, the Potency is reported as inconclusive: 28.2 µM [inhibitor, full curve, poor fit].
